Screen size: about 50,000 compounds; about 800 (1.6%) showed an effect of 50% or more. Some of the results follow.
Target: Bcl-2-like protein 10 (Homo sapiens) (UniProt Q9HD36)
Test: TR3 peptide-Bcl-B binding displacers, biochemical primary FP assay, phenotype converters (AID 1240);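 note: 0% = Bcl-B with tracer peptide and DMSO and 100% = tracer peptide lacking Bcl-B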
Details: GST-Bcl-B / FITC-TR3 peptide fluorescence polarization; stronger effect = higher value; compound at 3.75 mg/L

UniProt Q9HD36, sequence (Q9HD36 whole entry, looked up): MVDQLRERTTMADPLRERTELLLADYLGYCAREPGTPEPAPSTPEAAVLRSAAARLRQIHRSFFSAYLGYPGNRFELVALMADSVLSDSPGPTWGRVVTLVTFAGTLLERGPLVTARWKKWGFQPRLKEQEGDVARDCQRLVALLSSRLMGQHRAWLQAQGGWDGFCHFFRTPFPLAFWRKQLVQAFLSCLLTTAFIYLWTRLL

Structure (SMILES)	displacement [%]
N=C1C(c2nc3ccccc3c(=O)[nH]2)=C(O)CN1Cc1ccccc1	3.1
Cc1oc(C(C)(C)C)cc1C(=O)Nc1cccc(O)c1	2.8
Cc1c(NC(=O)c2nn3c(c2Cl)NC(c2cccs2)CC3C(F)(F)F)c(=O)n(-c2ccccc2)n1C (stereo not drawn)	-0.6
CSc1nc(C)c(CC(=O)c2ccc(Br)cc2)c(C)c1C#N	-16.1
CONC(=O)c1ccc(C(=O)c2cc(OC)ccc2OC)cc1	-6.6
CN1C(N)=NC(=O)C12COC(c1cccnc1)OC2 (stereo not drawn)	7.8
Cc1ccc(/C=C/C(=O)N2CCN(c3ccc(Cl)cc3)CC2)cc1	-16
O=C(/C=C/c1ccc(F)cc1)NC(=S)Nc1cccc(O)c1	0.3
O=C(O)c1ccc([N+](=O)[O-])c2c1NC(C1CC=CCC1)C1CC=CC21 (stereo not drawn)	8.7
CCOC(=O)C(N)Cc1ccc(O)c([N+](=O)[O-])c1 (stereo not drawn)	5.9
CC1CCCCN1S(=O)(=O)c1ccccc1[N+](=O)[O-] (stereo not drawn)	-5.5
COc1ccccc1/C=C(\C#N)C(=O)Nc1ccc(F)cc1	-5.9
NNC(=O)c1cc(-c2ccc(N)cc2)nc2ccc(Br)cc12	-9.7
COC(=O)C1=C(C)N=c2s/c(=C\c3ccc(OC)cc3OC)c(=O)n2C1c1ccccc1 (stereo not drawn)	6.9
Cc1ccc(OCC(=O)NNC(=O)c2cccs2)c(C)c1	1.1
CCC(=O)N1c2ccccc2NC2=C(C(=O)CC(c3ccccc3)C2)C1c1cccnc1 (stereo not drawn)	2.5
NC(=O)c1sc2cc(F)ccc2c1Cl	-7.3
O=C(Nc1nccs1)C1(c2ccccc2)CC1(Cl)Cl (stereo not drawn)	-14.9
Cc1cccc(C(=O)N2CCc3ccccc32)c1	-9.3
Clc1cccc(Cl)c1SCCc1ccccn1	0.3
O=C(O)C1C2C=CC(C2)C1C(=O)Nc1cccnc1 (stereo not drawn)	45.4
COc1ccc(OC)c(NC(=S)NC(NC(=O)CC(C)C)C(Cl)(Cl)Cl)c1 (stereo not drawn)	-7.7

Structure (SMILES)	displacement [%]
O=C(Nc1ccccc1C(=O)N=Nc1c(O)[nH]c2ccc([N+](=O)[O-])cc12)c1ccccc1	-1.3
O=C(/C=C/c1ccco1)Nc1ccc(Cl)cc1C(=O)O	12.2
COC(=O)C1=C(C)N(C)C(C)=C(C(=O)OC)C1c1ccsc1	-8.7
Cc1ccc(-c2nc3ncccc3o2)cc1N	5.8
O=C(CC1S/C(=N\N=C\c2ccco2)NC1=O)Nc1ccccc1F (stereo not drawn)	8.6
O=C(N=Nc1c(O)n(Cc2ccccc2)c2ccccc12)c1ccc2ccccc2n1	14.9
O=C(C1=C(O)C(=O)N(c2nncs2)C1c1cccc([N+](=O)[O-])c1)c1cccs1 (stereo not drawn)	7.1
N#C/C(=C\c1ccc(-c2ccccc2F)o1)c1nn(-c2ccccc2)c(N)c1C#N	13.8
Cc1c(NC(=O)C(C)Oc2ccccc2)cccc1NC(=O)C(C)Oc1ccccc1 (stereo not drawn)	13.4
CC1=C(C(=O)Nc2ccc(Cl)cc2)C(c2ccc(F)cc2)NC(=O)N1 (stereo not drawn)	10.9
COC(=O)c1cc(C(=O)NCc2ccccn2)cc([N+](=O)[O-])c1	6.5
CCCSc1nnc2n(-c3ccc(OC)cc3)c(=O)c3c4c(sc3n12)CCCC4	34.9
COc1ccccc1-c1coc2cc(OC(=O)c3c(C)cc(C)cc3C)ccc2c1=O	16.9
Nc1n[nH]c(N)c1N=Nc1ccccc1F	-12.8
CCOCCOC(=O)c1ccc(NC(=O)COc2ccc(C)cc2C)cc1	-9
COc1ccc(Cl)cc1NS(=O)(=O)c1ccc2ccccc2c1	-6.5
CSc1nnc(-c2ccccc2)c(-c2ccccc2)n1	-2.3
CCOc1ccc2ccccc2c1/C=N/N1C(=O)C2C(C1=O)C1C=CC2C12CC2 (stereo not drawn)	4.8
Cc1cc(OCC(O)CNC(C)C)ccc1C(C)C (stereo not drawn)	5.8
Cc1ccc(NC(=O)c2ccc3ccccc3c2)c([N+](=O)[O-])c1	9.1
CC1=NN(c2ccc(C(=O)O)cc2)C(=O)/C1=C\c1ccc(-c2cccc(C(=O)O)c2)o1	13.4
COc1ccc(OC)c(NC(=O)CN(c2cccc([N+](=O)[O-])c2)S(=O)(=O)c2ccccc2)c1	9.6

Structure (SMILES)	displacement [%]
CCOC(=O)C1=C(C)N=c2s/c(=C\c3ccncc3)c(=O)n2C1c1cccc(OC)c1 (stereo not drawn)	-17.5
COc1ccc(C(NC(C)=O)c2c(OC(C)=O)ccc3ccccc23)cc1OC (stereo not drawn)	-18.9
CC(C)(C)c1ccc(OCC(O)CS(=O)(=O)Cc2ccccc2)cc1 (stereo not drawn)	-16.7
O=C1NC(=O)N(c2ccccc2)C(=O)/C1=C\C=C\c1cccc([N+](=O)[O-])c1	9.8
CC1CCc2c(sc(NC(=O)CCN3C(=O)c4ccccc4C3=O)c2C(N)=O)C1 (stereo not drawn)	16
Cc1cc2ncn(C(=O)c3cc(-c4ccccc4)nc4ccccc34)c2cc1C	-8.9
COC(=O)n1ccc(C(=O)Nc2ccc(C)cc2C)n1	-5.2
O=C(Nc1ccc(S(=O)(=O)N2CCCCCC2)cc1)c1cccs1	-1.4
Cc1ccc2nc(/N=C(/N)NC(=O)Cc3ccc(Cl)cc3)nc(C)c2c1	-2.5
COc1ccc(OCCCCOc2ccccc2)cc1	8.4
COC(=O)c1ccccc1NC(=O)CN(c1ccc(OC)cc1OC)S(=O)(=O)c1ccc(C)cc1	0.1
Cc1ccc(-c2csc(NC(=O)c3ccc4c(c3)OCO4)n2)cc1	5.2
O=[N+]([O-])c1ccc(N2CCOCC2)nc1	4.2
Cc1ccc(O)c(NC(=O)c2cnn3c(C(F)(F)F)cc(-c4cccs4)nc23)c1	-7.5
CC(=O)NS(=O)(=O)c1ccc(NC(=O)C(C)(C)C)cc1	1.4
Cc1ccccc1NC(=O)C(=O)NCCc1ccccc1	2.8
CCc1ccc(NC(=O)c2ccc(-c3ccccc3)cc2)cc1	13.5
O=C(Cn1nnc(-c2ccccc2)n1)N/N=C/c1c(F)cccc1Cl	-9.6
O=C(CN1CCCCC1)n1c2c(c3ccccc31)CCCC2	5.1
CC(C(=O)N1CCOCC1)N1C(=O)c2cccc3cccc(c23)C1=O (stereo not drawn)	10.5
Cc1c(C#N)c(N=CN(C)C)c(C#N)n1-c1ccccc1	-3.3
Oc1ccc(C=NCC2COc3ccccc3O2)cc1 (stereo not drawn)	13.1

Structure (SMILES)	displacement [%]
COc1cc(/C=N\Nc2nc3ccccc3[nH]2)cc(OC)c1OC	1.2
CCC1=NN2C(=N)/C(=C/c3ccc(-c4ccc([N+](=O)[O-])cc4Cl)o3)C(=O)N=C2S1	15.1
O=C1CC(c2ccccc2Cl)CC2=C1C(c1ccsc1)Nc1ccccc1N2 (stereo not drawn)	8.8
Cn1c(=O)n(Cc2ccc(Cl)cc2)c2ccccc21	-2.6
C=CCOC(=O)C1=C(C)NC2=C(C(=O)CC(C)(C)C2)C1c1cccc(Cl)c1Cl (stereo not drawn)	2.7
O=C(O)CCN1C(=O)c2ccc(C(=O)c3cccc([N+](=O)[O-])c3)cc2C1=O	8.8
C=CCC1(C#N)C(=S)NC2=C(C(=O)CC(C)(C)C2)C1c1ccc(Br)cc1 (stereo not drawn)	8.2
O=C(COc1ccccc1[N+](=O)[O-])Nc1ccc(Cl)cn1	-2.4
COc1ccc(C(=O)Nc2nc3ccc(Br)cc3s2)cc1	1.9
COc1cc(/C=N/N2C(=O)CSC2=S)ccc1OCCOc1cc(C)ccc1C(C)C	-1.1
O=C(Cc1ccccc1)Nc1ccc(SC(F)(F)C(F)(F)C(F)(F)F)cc1	-17.7
NS(=O)(=O)c1ccc(CCNC(=O)c2cccs2)cc1	5.4
O=C(Nc1cccc(Cl)c1)OCc1ccccc1F	-6.6
Cc1c(NC(=O)CN(c2ccc(Oc3ccccc3)cc2)S(C)(=O)=O)c(=O)n(-c2ccccc2)n1C	11
NC(N)=NS(=O)(=O)c1ccc(NC(=O)c2cccc([N+](=O)[O-])c2)cc1	6.7
C=CCN1C(=O)/C(=C/c2ccc(N(C)C)cc2)C(=O)NC1=S	-3.8
COc1cc(C(=O)NC(NC(=S)Nc2cccc([N+](=O)[O-])c2)C(Cl)(Cl)Cl)cc(OC)c1OC (stereo not drawn)	1.6
Cc1ccc(N2C(=O)c3ccc(C(=O)Nc4cccc(C)c4C)cc3C2=O)c(C)c1	6.6
O=c1c2c3c(sc2ncn1/N=C/c1ccco1)CCCC3	10
NC(=O)CCn1c(=S)n(CCC(N)=O)c2ccccc21	-2.4
COC(=O)C1CC(C)=CC(C)C1C(=O)O (stereo not drawn)	1.4
CC1(C)Cc2c(sc(NC(=O)c3ccc(Cl)cc3)c2C#N)CO1	-5.4

Structure (SMILES)	displacement [%]
C=CCc1ccccc1OCCOc1ccccc1/C=C1/SC(=S)N(C)C1=O	0.3
CC1=NOC(=O)/C1=C\c1ccc(OCc2ccc(Cl)cc2)cc1	8.7
O=C(/C=C\c1ccc(-c2ccc(Br)cc2)o1)N1CCOCC1	1.4
COc1cc(NC(C)=O)c(Cl)cc1NC(=O)c1ccccc1	0.1
CC1=NN(C(N)=S)C2(O)CC3C(C12)C3(C)C (stereo not drawn)	7.5
COCCN1C(=O)C(=O)/C(=C(/O)c2ccccc2)C1c1ccc(C)cc1 (stereo not drawn)	-4.9
O=C(COc1ccccc1[N+](=O)[O-])Nc1ccc(Cl)c(-c2nc3ccccc3s2)c1	-2.6
CCOc1ccc(CN2CCN(C(=O)c3cccs3)CC2)cc1	-12.3
COc1ccc(OC)c(N2C(=O)C3C4C=CC(C4)C3C2=O)c1 (stereo not drawn)	-9
O=C(O)c1ccc(C(=O)Nc2ccccc2Br)c(C(=O)O)c1	6.5
Cc1ccc(N2CC(C(=O)Nc3ccccc3C)CC2=O)cc1 (stereo not drawn)	9.9
C=CCn1c(/C=C/c2ccccc2)nc2ccccc21	-4.9
CC(C)c1ccc(/C=C(\C(=O)c2ccccc2Cl)c2nc3ccccc3o2)cc1	6.4
O=C1S/C(=C/c2ccc(F)cc2)C(=O)N1CNc1ccc(I)cc1	11.9
CCOC(=O)C1=C(O)/C(=C/c2ccc(Cl)cc2)SC1=Nc1ccc(OC)cc1	3.1
O=C/C(=C\Nc1ccc(Cl)cn1)c1nc2cc(Cl)ccc2o1	-40.6
O=C(CSc1n[nH]c(-c2ccccc2)n1)Nc1ccccn1	-5.3
O=c1[nH]c(/C=C/c2ccco2)nc2ccccc12	37.8
Cc1cc([N+](=O)[O-])ccc1N=Cc1ccc([N+](=O)[O-])s1	6.9
CN(c1ccc(C(=O)O)cc1)S(=O)(=O)c1ccccc1	10.9

Source: PubChem BioAssay AID1240 (Sanford-Burnham Center for Chemical Genomics, 2008)
